Measured values reported in US20230113563A1 (SYSTIMMUNE, published 2023).

Target: EGFR on tumor cells (MDA-MB-231, HeLa) (UniProt P00533)
Test: cell-based or functional assay

TDCC EC50 (pM), HeLa target cells, E:T 10: 33 pM
B1: SI-55E3 (other)
heavy: DIVLTQSPASLAVSLGQRATISCKASQSVDFDGDSYMNWYQQKPGQPPKVLIYAASNLESGIPARFSGSGSGTDFTLNIHPVEEEDAATYYCQQSNEDPWTFGGGTKLEIKRTVAAPSVFIFPPSDEQLKSGTASVVCLLNNFYPREAKVQWKVDNALQSGNSQESVTEQDSKDSTYSLSSTLTLSKADYEKHKVYACEVTHQGLSSPVTKSFNRGEC
light: DIVLTQSPASLAVSLGQRATISCKASQSVDFDGDSYMNWYQQKPGQPPKVLIYAASNLESGIPARFSGSGSGTDFTLNIHPVEEEDAATYYCQQSNEDPWTFGGGTKLEIKRTVAAPSVFIFPPSDEQLKSGTASVVCLLNNFYPREAKVQWKVDNALQSGNSQESVTEQDSKDSTYSLSSTLTLSKADYEKHKVYACEVTHQGLSSPVTKSFNRGEC
